# Measured values published in the supplement of paper PMC8728848.
# This is one part of the list.
# B1: GS13686A-pdi-553-26-553 (Parabacteroides distasonis) (protein)
# chain: NENPDKPTDDVNYNMNEPRLASTLRGGLIIEGNVEQRLKPLQIDFYSQMTVDGGGWGTKNYIQDDEWNNLVWEEYLKQIASINIVIRSLTEKDKDAYANTIAFARIWRVYVHTLAADKFGPMPFPAYEIVEANPPYKSLKDIYDEYFRELDAAINGFNDSAQPIFSDAGIDLIYKNDVSKWKRFANSLRLRLAVRLTEVDQEKCIAEANAAISSPAGLISDKADNAYMPPKADGSWGQDYNYTMFQITWSGPICMSKSVEKLVTNIGGVAWPQGVVNQTSGVAVSSVHPEKVDPRAPKIFQPGIENGDWKGLVYGPKAEEANTGIYQSKQCAELGFIIKDGYPYKSRPYDLFLSEEVHFLKAELYARGFIAGDAKSEYEAGVRASFATWGVTSEVDDYLTSTEKNEAGTSARYDDQQGAGNTALEKIITQKYIAGIPDLAQEGWNDKRRLNLPRLDVAVYRDQAVYNNNDKDILKSANFIKRMRYPTKESLINATEYEKGKSMLGGKGDIVSTPLWWDKNSNYCTSSK
# Legend:
# Experiment in all cases: glycan array binding signal (z-score within array); higher = stronger binding
# Details in all cases: glycan notation: IUPAC condensed, linker removed
# [1] = biological target: Fuc(a1-2)Gal(b1-4)GlcNAc(b1-3)Gal(b1-4)GlcNAc(b1-3)Gal(b1-4)GlcNAc
# Outline: (§1)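 From the Consortium for Functional Glycomics database, 3228 arrays were curated, keeping only those whose protein sequence was available. Binding is given as a within-array Z-score averaged across arrays sharing a protein sequence and across linkers. Negative Z-scores can be read as non-binding.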
# [2] = biological target: Fuc(a1-2)Gal(b1-4)GlcNAc(b1-3)GalNAc
# Outline: as §1
# [3] = biological target: Fuc(a1-2)Gal(b1-4)GlcNAc(b1-3)[Fuc(a1-2)Gal(b1-4)GlcNAc(b1-6)]GalNAc
# Outline: as §1
# [4] = biological target: Fuc(a1-2)Gal(b1-4)GlcNAc(b1-3)[Fuc(a1-3)[Gal(b1-4)]GlcNAc(b1-6)]Gal(b1-4)Glc
# Outline: as §1
# [5] = biological target: Fuc(a1-2)Gal(b1-4)GlcNAc(b1-6)GalNAc
# Outline: as §1
# [6] = biological target: Fuc(a1-2)Gal(b1-4)GlcNAc6S
# Outline: as §1
# [7] = biological target: Fuc(a1-2)Gal(b1-4)[Fuc(a1-3)]GlcNAc
# Outline: as §1
# [8] = biological target: Fuc(a1-2)Gal(b1-4)[Fuc(a1-3)]GlcNAc(b1-2)Man(a1-3)[Fuc(a1-2)Gal(b1-4)[Fuc(a1-3)]GlcNAc(b1-2)Man(a1-6)]Man(b1-4)GlcNAc(b1-4)[Fuc(a1-6)]GlcNAc
# Outline: as §1
# [9] = biological target: Fuc(a1-2)Gal(b1-4)[Fuc(a1-3)]GlcNAc(b1-2)[Fuc(a1-2)Gal(b1-4)[Fuc(a1-3)]GlcNAc(b1-4)]Man(a1-3)[Fuc(a1-2)Gal(b1-4)[Fuc(a1-3)]GlcNAc(b1-2)Man(a1-6)]Man(b1-4)GlcNAc(b1-4)GlcNAc
# Outline: as §1
# [10] = biological target: Fuc(a1-2)Gal(b1-4)[Fuc(a1-3)]GlcNAc(b1-3)Gal(b1-4)[Fuc(a1-3)]GlcNAc
# Outline: as §1
# [11] = biological target: Fuc(a1-2)Gal(b1-4)[Fuc(a1-3)]GlcNAc(b1-3)Gal(b1-4)[Fuc(a1-3)]GlcNAc(b1-3)Gal(b1-4)[Fuc(a1-3)]GlcNAc
# Outline: as §1
# [12] = biological target: Fuc(a1-2)Gal(b1-4)[Fuc(a1-3)]GlcNAc(b1-3)GalNAc
# Outline: as §1
# [13] = biological target: Fuc(a1-2)Gal(b1-4)[Fuc(a1-3)]GlcNAc(b1-3)[Neu5Ac(a2-6)Gal(b1-4)GlcNAc(b1-6)]Gal(b1-4)Glc
# Outline: as §1
# [14] = biological target: Fuc(a1-2)Gal3S(b1-4)GlcNAc
# Outline: as §1
# [15] = biological target: Fuc(a1-2)Gal6S(b1-3)GlcNAc
# Outline: as §1
# [16] = biological target: Fuc(a1-2)Gal6S(b1-3)GlcNAc6S
# Outline: as §1
# Fuc(a1-2)Gal6S(b1-4)Glc = biological target: Fuc(a1-2)Gal6S(b1-4)Glc
# Outline: as §1
# [17] = biological target: Fuc(a1-2)Gal6S(b1-4)Glc6S
# Outline: as §1
# Fuc(a1-2)[Gal(a1-3)]Gal = biological target: Fuc(a1-2)[Gal(a1-3)]Gal
# Outline: as §1
# [18] = biological target: Fuc(a1-2)[Gal(a1-3)]Gal(b1-3)GalNAc
# Outline: as §1
# [19] = biological target: Fuc(a1-2)[Gal(a1-3)]Gal(b1-3)GalNAc(b1-3)Gal(a1-4)Gal(b1-4)Glc
# Outline: as §1
# [20] = biological target: Fuc(a1-2)[Gal(a1-3)]Gal(b1-3)GlcNAc
# Outline: as §1
# [21] = biological target: Fuc(a1-2)[Gal(a1-3)]Gal(b1-3)GlcNAc(b1-2)Man(a1-3)[Fuc(a1-2)[Gal(a1-3)]Gal(b1-3)GlcNAc(b1-2)Man(a1-6)]Man(b1-4)GlcNAc(b1-4)GlcNAc
# Outline: as §1
# [22] = biological target: Fuc(a1-2)[Gal(a1-3)]Gal(b1-3)GlcNAc(b1-2)Man(a1-3)[Fuc(a1-2)[Gal(a1-3)]Gal(b1-3)GlcNAc(b1-2)Man(a1-6)]Man(b1-4)GlcNAc(b1-4)[Fuc(a1-6)]GlcNAc
# Outline: as §1
# [23] = biological target: Fuc(a1-2)[Gal(a1-3)]Gal(b1-3)GlcNAc(b1-3)GalNAc
# Outline: as §1
# [24] = biological target: Fuc(a1-2)[Gal(a1-3)]Gal(b1-3)GlcNAc(b1-6)GalNAc
# Outline: as §1
# [25] = biological target: Fuc(a1-2)[Gal(a1-3)]Gal(b1-4)Glc
# Outline: as §1
# [26] = biological target: Fuc(a1-2)[Gal(a1-3)]Gal(b1-4)GlcNAc
# Outline: as §1
# [27] = biological target: Fuc(a1-2)[Gal(a1-3)]Gal(b1-4)GlcNAc(b1-2)Man
# Outline: as §1
# [28] = biological target: Fuc(a1-2)[Gal(a1-3)]Gal(b1-4)GlcNAc(b1-2)Man(a1-3)[Fuc(a1-2)[Gal(a1-3)]Gal(b1-4)GlcNAc(b1-2)Man(a1-6)]Man(b1-4)GlcNAc(b1-4)GlcNAc
# Outline: as §1
binder,measurement,setting,value
B1,glycan array binding signal (z-score),[1],-0.364
same,glycan array binding signal (z-score),[2],-0.352
same,glycan array binding signal (z-score),[3],-0.111
same,glycan array binding signal (z-score),[4],-0.09
same,glycan array binding signal (z-score),[5],-0.08
same,glycan array binding signal (z-score),[6],-0.344
same,glycan array binding signal (z-score),[7],-0.231
same,glycan array binding signal (z-score),[8],-0.058
same,glycan array binding signal (z-score),[9],0.061
same,glycan array binding signal (z-score),[10],-0.019
same,glycan array binding signal (z-score),[11],-0.045
same,glycan array binding signal (z-score),[12],0.523
same,glycan array binding signal (z-score),[13],-0.056
same,glycan array binding signal (z-score),[14],-0.31
same,glycan array binding signal (z-score),[15],-0.018
same,glycan array binding signal (z-score),[16],-0.138
same,glycan array binding signal (z-score),Fuc(a1-2)Gal6S(b1-4)Glc,-0.226
same,glycan array binding signal (z-score),[17],0.08
same,glycan array binding signal (z-score),Fuc(a1-2)[Gal(a1-3)]Gal,-0.204
same,glycan array binding signal (z-score),[18],0.325
same,glycan array binding signal (z-score),[19],-0.231
same,glycan array binding signal (z-score),[20],-0.036
same,glycan array binding signal (z-score),[21],-0.301
same,glycan array binding signal (z-score),[22],0.02
same,glycan array binding signal (z-score),[23],-0.226
same,glycan array binding signal (z-score),[24],-0.026
same,glycan array binding signal (z-score),[25],-0.096
same,glycan array binding signal (z-score),[26],-0.38
same,glycan array binding signal (z-score),[27],-0.139
same,glycan array binding signal (z-score),[28],-0.189
